Screen size: about 43,000 compounds; about 200 (0.47%) were called active. About 12% were inconclusive and are not listed. The call rests on the fitted dose curve; in most records, active means well fitted cell-killing curve with a large enough effect; inconclusive means small, poorly fitted or top-dose-only effect, or effect the other way; inactive means flat fitted curve, though single readings scatter. This is one part of the list.
Experiment: Cell viability qHTS assay in S16 Pmp22-F2sN cells; further: nearly all actives have a fitted effect of over 65% in size
Conditions: S16 Pmp22-F2sN Schwann cells viability, CellTiter-Glo, 24 h; series mostly up to 57.5 µM; activity change, negative = cytotoxicity: at the top concentration
Method in brief: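 Used to flag compounds lowering reporter output through toxicity, this quantitative HTS measures ATP-based CellTiter-Glo luminescence in S16 Pmp22-F2sN Schwann cells after 24 h compound exposure at 37C.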
On the % scale 0 is the no-effect control and ±100 the full control effect.

Row | SMILES | activity change, negative = cytotoxicity
1 | O=C(CC1N=C2c3ccccc3N=C(SCC(=O)Nc3ccc(F)cc3)N2C1=O)NCc1cccs1 (stereo not given) | inactive: 2.89%
2 | CCCNC(=O)CSc1nc(-c2ccc(OC)cc2)cc(C(F)(F)F)n1 | inactive: 16.3%
3 | Cc1ccc(NC(=O)CN2C(=O)CC(C)Sc3ccccc32)c(C)c1 (stereo not given) | inactive: 2.57%
4 | Cc1cccn2c(=O)c3cc(C(=O)Nc4ccc(Cl)c(Cl)c4)sc3nc12 | inactive: -0.0909%
5 | Cc1ccc(Nc2ccc(N3CCN(C(=O)c4ccc([N+](=O)[O-])cc4)CC3)nn2)cc1 | inactive: 2.51%
6 | Cn1c(SCc2ccc(Br)cc2)nc2c([nH]c3ccccc32)c1=O | inactive: 5.84%
7 | Cc1ccc(S(=O)(=O)NCCc2csc(-c3cccc(F)c3)n2)cc1 | inactive: 0.236%
8 | Cc1cc(C)n(C(C)CC(=O)NCc2ccc(Cl)cc2)n1 (stereo not given) | inactive: 1.72%
9 | CCNC(=O)Cn1nc(C)n2c(cc3c(OC)cccc32)c1=O | inactive: 4.92%
10 | Cn1c(Oc2ccc(Cl)cc2)nc2c1c(=O)n(Cc1ccc(F)cc1)c(=O)n2C | inactive: 1.71%
11 | O=C(NCCc1ccccc1)c1ccc2c(c1)N(Cc1ccc(F)cc1)C(=O)c1ccccc1S2 | inactive: -0.678%
12 | CCc1ccccc1NC(=O)CC1Sc2ccc(C(F)(F)F)cc2NC1=O (stereo not given) | inactive: -1.32%
13 | CCCCSc1nnc2c(n1)OC(C)N(C(C)=O)c1ccccc1-2 (stereo not given) | inactive: 4.2%
14 | COc1ccc(CCNC(=O)C2COc3ccccc3C2)cc1OC (stereo not given) | inactive: -9.35%
15 | COc1ccc(CCNC(=O)Cc2c(C)c3cc4c(C)coc4c(C)c3oc2=O)cc1 | inactive: 8.3%
16 | COc1cc(Cl)c(C)cc1NC(=O)c1cnc(N2CCOCC2)c2ccccc12 | inactive: -17.5%
17 | Cc1cc(C)cc(NC(=O)CCC(=O)N2CCSc3ccccc32)c1 | inactive: 3.3%
18 | Cc1cc(C)c2nc(NC(=O)c3ccc(S(=O)(=O)N4CCc5ccccc54)cc3)sc2c1 | inactive: 12.3%
19 | CCN(C(=O)Cn1cnc2onc(-c3ccc(F)cc3)c2c1=O)c1ccc(OC)cc1 | inactive: -18.1%
20 | O=C(Cn1c(=O)n(Cc2ccc3c(c2)OCO3)c(=O)c2oc3ccccc3c21)Nc1ccccc1F | inactive: 10.9%

Row | SMILES | activity change, negative = cytotoxicity
21 | COc1cc(OC)c(NC(=O)N2CCCn3nc(C)cc32)cc1Cl | inactive: -0.983%
22 | COc1ccc(-c2nnc(SCC(=O)NC3CCCCC3)nc2-c2ccc(OC)cc2)cc1 | inactive: -2.68%
23 | COCCn1c(C)cc(O)c(C(c2ccccc2)N2CCN(c3ccccc3)CC2)c1=O (stereo not given) | inactive: -1.5%
24 | COc1ccc(NC(=O)CCNS(=O)(=O)c2cccc3nsnc23)cc1Cl | inactive: 11.7%
25 | CCn1c(=O)cc(OCC(=O)N2CCN(c3ccc(OC)cc3)CC2)c2ccccc21 | inactive: -8.13%
26 | O=C(NCc1nc2ccccc2[nH]1)c1c(F)cccc1F | inactive: 5.6%
27 | Cc1cccc(-n2c(C)nc3cc(C(=O)NCCC4=CCCCC4)ccc32)c1 | inactive: 2.05%
28 | O=C(CSc1nc(Nc2ccc(F)cc2)c2ccccc2n1)c1ccc(F)cc1 | inactive: 21.2%
29 | CCCS(=O)(=O)N1CC(=O)N(c2ccc(C)cc2)C(C)(C(=O)NC2CCCCCC2)C1 (stereo not given) | inactive: 5.39%
30 | COc1ccc(CCNC(=O)c2cc3sccc3n2Cc2ccc(Cl)cc2)cc1OC | inactive: -2.34%
31 | CCOc1ccccc1CN1CCc2nc(Nc3ccc4c(c3)OCCO4)ncc2C1 | inactive: -21.5%
32 | CCCOc1ccc(C2CC(=O)Nc3c2c(C)nn3-c2nncc(-c3cccc(OC)c3)n2)cc1OC (stereo not given) | inactive: -6.82%
33 | COc1cccc(C2=CC(c3cc(Br)ccc3F)n3nnnc3N2)c1 (stereo not given) | inactive: -10.9%
34 | O=c1[nH]c(=O)n(C2CCCCC2)c(O)c1C1=Nc2ccccc2SC(c2ccc(Cl)cc2)C1 (stereo not given) | inactive: -1.13%
35 | COc1ccc2cc3cc(C(=O)N4CCN(c5ccccc5F)CC4)oc3nc2c1 | inactive: 1.11%
36 | COC(=O)c1ccc(NC(=O)N2CCN(Cc3cc(=O)n4nc(-c5ccc(C)cc5)sc4n3)CC2)cc1 | inactive: 23.5%
37 | CC(CNC(=O)CN1C(=O)c2cccnc2Oc2ccc(Cl)cc21)c1ccccc1 (stereo not given) | inactive: -4.63%
38 | COc1ccc(-c2noc(-c3ccc(N4CCN(c5ccccc5)CC4)c([N+](=O)[O-])c3)n2)cc1 | inactive: 2.87%
39 | COc1cccc(OC)c1C(=O)Nc1nc2c(s1)CCc1ccccc1-2 | inactive: 18.7%
40 | Cc1cccc(NC(=O)c2ccc3c(c2)CCN3S(=O)(=O)c2ccccc2)c1C | inactive: -2.97%

Row | SMILES | activity change, negative = cytotoxicity
41 | Cc1nc2c(c(C)c1CCC(=O)NCc1ccc(Cl)cc1)c(=O)n(C)c(=O)n2C | inactive: 7.61%
42 | COc1ccc(N2CC(C(=O)NCc3nnnn3-c3ccc(C)c(C)c3)CC2=O)cc1 (stereo not given) | inactive: -1.57%
43 | O=C(Cn1c(SCCOc2ccc(Cl)cc2)nc2ccccc21)N1CCCCC1 | inactive: 1.23%
44 | COc1ccc(-c2nnc3n2N(C(C)=O)C(c2ccc(Cl)c(Cl)c2)=C(C(C)=O)S3)cc1 | inactive: -3.34%
45 | Cc1cccc(N2C(=O)CSC23C(=O)N(CC(=O)NCc2ccccc2Cl)c2ccccc23)c1 (stereo not given) | inactive: -25.4%
46 | COc1ccccc1NC(=O)Cn1c(=O)c(CNc2ccc(C)cc2)cc2cc3c(cc21)OCCO3 | inactive: 3.33%
47 | COc1ccc(CCNC(=O)C(=O)NCC(c2ccco2)S(=O)(=O)c2ccccc2)cc1 (stereo not given) | inactive: 6.62%
48 | COc1ccc(NC(=O)c2ccc3c(SCC(=O)O)c4c(nc3c2)CCC4)c(OC)c1 | inactive: 2.22%
49 | CCOc1ccccc1N1CC(c2nc3ccccc3n2Cc2c(C)cc(C)cc2C)CC1=O (stereo not given) | inactive: 11.1%
50 | COc1ccc(-c2nc(C)c(CCNC(=O)C(=O)Nc3cc(C)cc(C)c3)s2)cc1OC | inactive: 13.7%
51 | COc1ccc(-c2nc(SCc3cc(=O)c4cc(C)ccc4[nH]3)n[nH]2)cc1 | inactive: -22.6%
52 | COc1ccccc1N1CCN(S(=O)(=O)CCNC(=O)COc2ccc(C(C)C)cc2)CC1 | inactive: -24.2%
53 | Cc1sc2ncn(CC(=O)N3CCN(c4cccc(Cl)c4)CC3)c(=O)c2c1S(=O)(=O)N1CCN(c2ncccn2)CC1 | inactive: 11.1%
54 | Cc1cccc(N2CCN(C(=O)c3cc4c(=O)n(C)c5ccccc5c4s3)CC2C)c1 (stereo not given) | inactive: 3.65%
55 | CCOCCCNC(=O)C(c1ccc(OC)cc1)N(Cc1ccc2c(c1)OCO2)C(=O)c1ccccc1O (stereo not given) | inactive: -7.71%
56 | Cc1ccccc1C(=O)Nc1c(C)nc(Nc2ccccc2)nc1Nc1ccccc1 | inactive: -6.71%
57 | CC(=O)N1c2ccc(S(=O)(=O)NCC3CCC(C(=O)Nc4cccc(C)c4C)CC3)cc2CC1C (stereo not given) | inactive: -14.3%
58 | Cc1ccc(NC(=O)Cn2nc(C)n3cccc3c2=O)c(C)c1 | inactive: 5.21%
59 | COc1ccc(Nc2nc3c(S(=O)(=O)c4ccccc4)nnn3c3ccsc23)cc1OC | inactive: 13.5%
60 | COc1ccc(CCNC(=O)c2cn(C)c3ccc(S(=O)(=O)N(C)C4CCCCC4)cc3c2=O)cc1OC | inactive: -12.3%

— PubChem BioAssay AID1508642 (National Center for Advancing Translational Sciences (NCATS), 2021)
